Test results: article PMC4336329 (PLoS ONE, 2015)
Among all 310,000 compounds or so, about 2,200 (0.71%) showed an effect of 50% or more. The effect is printed as a negative number. This is one part of the list.

The compounds below were run against human ether-à-go-go-related gene (hERG) potassium channel (human, UniProt Q12809) (assay: primary screen, population patch clamp on CHO cells stably expressing hERG).
human ether-à-go-go-related gene (hERG) potassium channel, sequence (Q12809 whole entry, looked up): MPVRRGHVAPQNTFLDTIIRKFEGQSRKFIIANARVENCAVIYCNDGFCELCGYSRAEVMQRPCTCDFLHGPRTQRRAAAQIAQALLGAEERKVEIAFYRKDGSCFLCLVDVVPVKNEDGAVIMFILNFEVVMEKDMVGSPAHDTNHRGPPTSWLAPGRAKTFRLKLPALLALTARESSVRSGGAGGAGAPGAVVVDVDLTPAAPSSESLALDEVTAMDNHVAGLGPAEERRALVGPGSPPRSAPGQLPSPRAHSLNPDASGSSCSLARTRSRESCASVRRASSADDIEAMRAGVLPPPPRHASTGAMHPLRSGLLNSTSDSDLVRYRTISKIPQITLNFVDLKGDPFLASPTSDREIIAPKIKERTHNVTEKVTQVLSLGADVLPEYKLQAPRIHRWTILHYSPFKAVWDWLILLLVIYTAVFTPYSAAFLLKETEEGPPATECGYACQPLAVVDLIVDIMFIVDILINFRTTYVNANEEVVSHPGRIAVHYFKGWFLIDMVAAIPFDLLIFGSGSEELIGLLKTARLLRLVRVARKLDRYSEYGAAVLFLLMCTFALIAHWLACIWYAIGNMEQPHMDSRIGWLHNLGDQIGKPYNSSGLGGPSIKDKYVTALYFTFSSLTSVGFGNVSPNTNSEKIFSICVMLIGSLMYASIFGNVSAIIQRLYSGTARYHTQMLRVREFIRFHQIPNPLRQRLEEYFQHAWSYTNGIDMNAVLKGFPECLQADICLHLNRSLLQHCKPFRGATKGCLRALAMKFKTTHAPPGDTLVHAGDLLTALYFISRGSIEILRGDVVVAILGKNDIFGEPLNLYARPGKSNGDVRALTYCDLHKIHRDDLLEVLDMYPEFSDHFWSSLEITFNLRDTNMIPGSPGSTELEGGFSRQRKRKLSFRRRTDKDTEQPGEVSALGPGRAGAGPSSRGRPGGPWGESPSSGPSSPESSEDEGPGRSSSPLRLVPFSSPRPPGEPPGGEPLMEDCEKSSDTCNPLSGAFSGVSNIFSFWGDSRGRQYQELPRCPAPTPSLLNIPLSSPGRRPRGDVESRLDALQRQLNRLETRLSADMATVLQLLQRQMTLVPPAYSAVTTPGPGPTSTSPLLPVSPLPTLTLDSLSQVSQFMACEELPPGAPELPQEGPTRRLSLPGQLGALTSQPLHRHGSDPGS

SMILES	hERG current change (%, negative = inhibition) at 1uM
CC1CC(C)CN(C(=O)c2ccc(S(=O)(=O)N3CC(C)CC(C)C3)cc2)C1 (centres unmarked)	-8.04%
Cn1nc(C(=O)OCC(=O)c2ccc[nH]2)c2ccccc2c1=O	1.29%
CCOC(=O)c1cccc(-c2c(-c3ccccc3)ncc3cc(OC)c(OC)cc23)c1	16.5%
COc1ccc(OC)c(CN2C(=O)c3ccccc3C2C(=O)NCC2CCCO2)c1 (centres unmarked)	11.1%
CN(C)CCCN(Cc1cc2cc3c(cc2[nH]c1=O)OCO3)C(=S)NCc1ccco1	6.62%
CCN(CC)CCN1C(=O)C(=O)/C(=C(/O)c2ccc(S(=O)(=O)N3CCOCC3)cc2)C1c1ccc(C(C)(C)C)cc1 (centres unmarked)	16.9%
Cc1ccc(CN(Cc2ccccn2)C(=O)Nc2ccc(C)c(C)c2)cc1	9.91%
Cc1ccc(N)c(C(=O)CCCCC(=O)O)c1	8.97%
Cc1nc2ccc(NC(=O)c3cnc(Cl)c(Cl)c3)cc2s1	4.43%
CC1(C)Cc2nc3oc4c(N(CCO)Cc5ccccc5)ncnc4c3cc2CO1	-31.9%
O=C1COc2ccccc2N1Cc1ccc(Cl)cc1	6.82%
CCNc1nc(NCC)nc(Oc2ccc(N)cc2)n1	2.88%
O=[N+]([O-])c1ccccc1S(=O)(=O)N1CCCCC1	10.7%
CC(C)CC(=O)NC(=S)NCCc1ccccc1	2.4%
CCC(=NCCCN1CCOCC1)c1c(O)n(Cc2ccccc2)c(=O)[nH]c1=O	-17.9%
COc1ccc(OC)c(N2C(N)=C(C#N)C(c3ccc(OC)c(O)c3)C3=C2CC(C)(C)CC3=O)c1 (centres unmarked)	7.15%
Cc1cccc(CN2CCc3c([nH]c4ccccc34)C2)c1	7.42%
CCOC(=O)Cc1csc(NC(=O)C2C3C=CC(C3)C2C(=O)O)n1 (centres unmarked)	6.57%
COc1cc(C#N)ccc1OC(=O)c1cccc(S(=O)(=O)N2CCN(C)CC2)c1	-6.24%

SMILES	hERG current change (%, negative = inhibition) at 1uM
Cc1ccc(C2=N/C(=C\c3cccc(F)c3)C(=O)O2)cc1	9.41%
CN(C(=O)COC(=O)c1cc(F)c(F)cc1Cl)c1ccccc1	2.57%
COc1ccc(CCC(=O)Nc2ccc(S(=O)(=O)N3CCOCC3)cc2)cc1	5%
O=C(/C=C/c1cccc(F)c1)NC1CCN(Cc2ccccc2)CC1	-51.4%
CCCc1ccc2oc(C(=O)N3CCC(N4CCCC(O)C4)CC3)c(C)c2c1 (centres unmarked)	4.07%
N#Cc1ccc(/C=C2\CCCCn3c2nc2cc(C(=O)O)ccc2c3=O)cc1	20.2%
CC(/C=N/Nc1ncc(C)c(=O)[nH]1)=C\c1ccccc1	-5.06%
COc1ccccc1CNS(=O)(=O)c1ccc(-n2cnnn2)c(OC)c1	-2.73%
COc1ccc(NC(=O)CCC(=O)Nc2cc(OC)c(NC(=O)c3cccs3)cc2OC)cc1	12.7%
Cc1onc(-c2ccccc2)c1-c1ccnc(N)n1	7.76%
CCOc1ccc(CN(C)C(=O)CNC(=O)C2CCCCC2)cc1OC	9.71%
CCN(CC)/C(=N/O)NC(=O)NS(=O)(=O)c1ccc(C)cc1	15.5%
CN(C)CCSCc1nnc2n1-c1ccc(Cl)cc1C(c1ccccc1Cl)=NC2.c1ccccc1	-51.9%
Cc1ccc(C(NC(=O)N2CCCC2)C(Cl)(Cl)Cl)cc1F (centres unmarked)	17.2%
Cc1onc(C(=O)Nc2cccc(C(F)(F)F)c2)c1[N+](=O)[O-]	4.65%
Cc1[nH]c2ccccc2c1C(=O)CSc1nc2ccccc2c(=O)n1CCCN1CCOCC1	13.8%
COc1ccc(S(=O)(=O)N2CCCCC2C)cc1 (centres unmarked)	8.15%
Cc1ccc(OCCNCc2ccccc2)c(C)c1.O=C(O)C(=O)O	10.1%
O=C(Nc1ccc([N+](=O)[O-])cc1)C(Cc1ccccc1)N1C(=O)c2cccc3cccc(c23)C1=O (centres unmarked)	11.6%

SMILES	hERG current change (%, negative = inhibition) at 1uM
S=c1[nH]nc(-c2ccncc2)n1CC1CCCO1 (centres unmarked)	16.2%
O=C(O)C(=O)O.c1ccc2c(OCCCN3CCCCCC3)cccc2c1	-10.2%
CC1=NNC(=O)C1C(c1ccc(Cl)cc1)C(C#N)C#N (centres unmarked)	12.3%
Cc1ccc(C(=O)NNC(=O)c2csc(N3CCOCC3)n2)o1	18.4%
CCOC(=O)C(=NCC1CCCO1)NNc1ccccc1Cl (centres unmarked)	11.8%
CN(c1ccc(OCC(=O)OCC(=O)NCc2ccco2)cc1)S(=O)(=O)c1ccc2ccccc2c1	13.4%
Cc1ccc(C2C(C#N)=C3N=C(N)c4ccccc4N3C3=C2C(=O)CCC3)cc1 (centres unmarked)	10.5%
CNC(=O)c1ccccc1S(=O)c1ccccc1C#N (centres unmarked)	3.75%
CCCCc1nnc(NC(=O)CSCc2cc(=O)n3ccsc3n2)s1	18.1%
CCCc1cc(=O)oc2cc(OC(C)C(=O)NCc3ccccn3)c(Cl)cc12 (centres unmarked)	-1.15%
O=C(Nc1ccccc1C(=O)N1CCCCCC1)c1ccccc1Cl	13.6%
O=C(Nc1ccccn1)c1onc2c1CCCC2	-3.53%
O=C(Nc1cccc(Cl)c1)c1cc([N+](=O)[O-])ccc1N1CCN(CCO)CC1	-7.8%
CC(C)c1nnc(NC(=O)c2cc3cc(Br)ccc3oc2=O)s1	6.91%
COc1ccc(NC(=O)CN(C)C(=O)c2csc3c2CCCC3)cc1	5.54%
CCN(CC)P(=O)(C(NC(=O)OC)C(F)(F)C(F)(F)C(F)(F)C(F)F)N(CC)CC (centres unmarked)	11.2%
O=C(COC(=O)Cn1c(C(F)(F)F)nc2ccccc21)Nc1ccc2c(c1)OCCO2	11.9%
Cc1nc2sccn2c(=O)c1S(=O)(=O)Nc1ccc(N2CCOCC2)c(Cl)c1	19.9%
